{"source": "paper PMC4336329", "about": "(PLoS ONE, 2015)", "note": "Screen size: about 310,000 compounds; about 14,000 (4.5%) showed an effect of 50% or more. Effects have a minus sign here. Some of the results follow.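 Also: peak tail current of the secondary pulse compared with the same well before compound.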", "data": [{"target": "human ether-à-go-go-related gene (hERG) potassium channel (human, UniProt Q12809)", "sequence (Q12809 whole entry, looked up)": "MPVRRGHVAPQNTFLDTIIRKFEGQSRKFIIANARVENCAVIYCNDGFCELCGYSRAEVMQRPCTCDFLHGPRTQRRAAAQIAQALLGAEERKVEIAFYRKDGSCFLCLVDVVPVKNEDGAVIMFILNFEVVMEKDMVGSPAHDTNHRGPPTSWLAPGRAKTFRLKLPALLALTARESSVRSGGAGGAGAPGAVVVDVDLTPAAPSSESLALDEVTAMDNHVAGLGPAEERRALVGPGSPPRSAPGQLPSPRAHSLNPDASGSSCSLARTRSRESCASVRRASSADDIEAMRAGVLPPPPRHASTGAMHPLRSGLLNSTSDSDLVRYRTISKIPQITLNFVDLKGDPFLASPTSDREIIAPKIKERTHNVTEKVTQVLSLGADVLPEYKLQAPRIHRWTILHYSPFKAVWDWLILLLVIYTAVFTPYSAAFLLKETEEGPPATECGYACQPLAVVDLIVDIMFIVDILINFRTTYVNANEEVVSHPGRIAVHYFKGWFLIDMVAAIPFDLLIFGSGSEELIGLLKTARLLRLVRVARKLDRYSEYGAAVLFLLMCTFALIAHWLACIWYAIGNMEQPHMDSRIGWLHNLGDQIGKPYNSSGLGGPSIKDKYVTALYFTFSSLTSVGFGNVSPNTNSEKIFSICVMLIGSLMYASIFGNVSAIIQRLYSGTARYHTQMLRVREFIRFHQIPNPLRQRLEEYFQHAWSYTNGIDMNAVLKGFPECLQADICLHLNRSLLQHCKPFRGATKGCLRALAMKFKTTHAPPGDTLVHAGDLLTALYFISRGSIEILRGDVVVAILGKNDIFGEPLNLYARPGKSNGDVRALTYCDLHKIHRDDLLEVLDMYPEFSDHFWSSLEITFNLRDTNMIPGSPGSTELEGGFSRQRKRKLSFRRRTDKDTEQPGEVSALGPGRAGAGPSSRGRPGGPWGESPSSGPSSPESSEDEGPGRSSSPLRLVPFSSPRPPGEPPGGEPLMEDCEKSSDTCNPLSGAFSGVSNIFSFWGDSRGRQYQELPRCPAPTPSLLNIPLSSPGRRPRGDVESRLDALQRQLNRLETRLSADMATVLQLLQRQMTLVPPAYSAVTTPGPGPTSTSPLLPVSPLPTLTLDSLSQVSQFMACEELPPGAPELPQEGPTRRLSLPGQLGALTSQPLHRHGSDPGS", "experiment": "primary screen, population patch clamp on CHO cells stably expressing hERG", "units": {"hERG current change (%, negative = inhibition) at 10uM": "%"}, "values": [{"smiles": "CCOC(=O)c1ccoc1CSCc1ccc(C(=O)OC)o1", "hERG current change (%, negative = inhibition) at 10uM": 5.24}, {"smiles": "Cl.O=C(CCN1CCCCC1)c1ccc2c(c1)OCCO2", "hERG current change (%, negative = inhibition) at 10uM": 4.82}, {"smiles": "Cc1cccnc1NC(=O)CCCN1C(=O)c2ccccc2C1=O", "hERG current change (%, negative = inhibition) at 10uM": 3.22}, {"smiles": "COc1cc(C(=O)N2CCC(n3c(C)nc4cc(F)ccc43)CC2)cc(OC)c1OC", "hERG current change (%, negative = inhibition) at 10uM": -8.07}, {"smiles": "CCOCCCNC(=O)C(c1ccccc1)N(Cc1ccc2c(c1)OCO2)C(=O)c1ccccc1O", "note": "(stereo not shown)", "hERG current change (%, negative = inhibition) at 10uM": 2.92}, {"smiles": "CC(=O)c1cccc(NC(=O)Cn2nc(-c3ccccc3Cl)ccc2=O)c1", "hERG current change (%, negative = inhibition) at 10uM": -1.1}, {"smiles": "Cc1ccc(N2C(=O)CSC2c2ccc3c(c2)OCO3)cc1", "note": "(stereo not shown)", "hERG current change (%, negative = inhibition) at 10uM": 1.2}, {"smiles": "Cc1cnc(NC(=O)CSc2nnc(-c3ccccc3)n2Cc2ccccc2)s1", "hERG current change (%, negative = inhibition) at 10uM": 0.896}, {"smiles": "Cc1ccnc(NS(=O)(=O)c2ccc(NC(=O)CCS(=O)(=O)c3ccccc3)cc2)n1", "hERG current change (%, negative = inhibition) at 10uM": 27.6}, {"smiles": "CSc1cccc(NC(=O)c2sc3nc4n(c(=O)c3c2C)CCC4)c1", "hERG current change (%, negative = inhibition) at 10uM": -24.6}, {"smiles": "Cc1ccc(-c2csc(=Nc3cccnc3)n2CCCn2ccnc2)cc1C", "hERG current change (%, negative = inhibition) at 10uM": -70.2}, {"smiles": "O=C1CCCC2=C1C(c1ccc(Br)cc1)c1c([nH]c(=S)[nH]c1=O)N2", "note": "(stereo not shown)", "hERG current change (%, negative = inhibition) at 10uM": -11.4}, {"smiles": "O=C(Nc1cccc(F)c1)c1ccc2c(c1)OCO2", "hERG current change (%, negative = inhibition) at 10uM": 12.3}, {"smiles": "Cc1[nH]c(-c2ccc(F)cc2)cc1C(=O)N1CCN(c2ccccc2F)CC1", "hERG current change (%, negative = inhibition) at 10uM": -70.3}, {"smiles": "Cc1ccc(OCCCCCN2CCOCC2)c(Cl)c1", "hERG current change (%, negative = inhibition) at 10uM": -15.3}, {"smiles": "O=C(NC(=S)Nc1ccc(Br)c(Cl)c1)C1CC1", "hERG current change (%, negative = inhibition) at 10uM": 4.33}, {"smiles": "O=C(Nc1ccccc1C(=O)NC(Cc1c[nH]c2ccccc12)C(=O)O)c1ccccc1", "note": "(stereo not shown)", "hERG current change (%, negative = inhibition) at 10uM": 7.09}, {"smiles": "Clc1ccc2nc(-c3ccncc3)cc(-c3ccccc3)c2c1", "hERG current change (%, negative = inhibition) at 10uM": 19.9}, {"smiles": "Cc1ccc(Cl)cc1N1CCN(C(=O)C2CCN(S(C)(=O)=O)CC2)CC1", "hERG current change (%, negative = inhibition) at 10uM": -14}, {"smiles": "Fc1ccc(-c2csc3[n+]2CCS3)cc1.[Br-]", "hERG current change (%, negative = inhibition) at 10uM": 5.38}, {"smiles": "COc1cccc(CN(C(=O)c2ccc([N+](=O)[O-])cc2)C2CCS(=O)(=O)C2)c1", "note": "(stereo not shown)", "hERG current change (%, negative = inhibition) at 10uM": -48.9}, {"smiles": "CC(C)(C)NC(=O)CN(C(=O)CS(=O)CC(=O)Nc1ccc(F)cc1)c1ccc(Cl)cc1", "note": "(stereo not shown)", "hERG current change (%, negative = inhibition) at 10uM": 3.73}, {"smiles": "O=C(OCC(=O)N(Cc1ccccc1)Cc1ccccc1)c1ccccc1O", "hERG current change (%, negative = inhibition) at 10uM": 5.67}, {"smiles": "COc1ccc(OC)c(N(C)S(=O)(=O)c2ccc3c(c2)N(C(C)=O)CCO3)c1", "hERG current change (%, negative = inhibition) at 10uM": -3.44}, {"smiles": "COc1ccc(OC)c(N=c2oc3c(OC)cccc3cc2C(=O)NCc2ccco2)c1", "hERG current change (%, negative = inhibition) at 10uM": 10.9}, {"smiles": "CC(=O)Nc1nc2ccccc2n1CCN1CCOCC1", "hERG current change (%, negative = inhibition) at 10uM": 0.217}, {"smiles": "NC(=O)NCC12CC3CC(CC(C3)C1)C2", "hERG current change (%, negative = inhibition) at 10uM": 6.45}, {"smiles": "Cc1ccc(C2N(c3ccccc3)C(=S)N3CCCN23)cc1", "note": "(stereo not shown)", "hERG current change (%, negative = inhibition) at 10uM": 7}, {"smiles": "CSc1n[nH]c(=O)n1C1CCCCC1", "hERG current change (%, negative = inhibition) at 10uM": 4.83}, {"smiles": "Cc1ccc(NC(=O)COc2ccccc2C(=O)Nc2ccccc2)cc1Cl", "hERG current change (%, negative = inhibition) at 10uM": -2.06}, {"smiles": "CC(=O)c1c(N)c(C#N)c(C)n1-c1ccc(Br)cc1", "hERG current change (%, negative = inhibition) at 10uM": 7.87}, {"smiles": "CC(OC(=O)c1cc(=O)[nH]c2ccccc12)C(=O)NCc1ccccc1", "note": "(stereo not shown)", "hERG current change (%, negative = inhibition) at 10uM": 3.74}, {"smiles": "CCOC(=O)Cn1c(=O)c(F)cn(Cc2ccc(OC)c([N+](=O)[O-])c2)c1=O", "hERG current change (%, negative = inhibition) at 10uM": 2.55}, {"smiles": "COc1cnc(-c2ccccn2)nc1Sc1ccc(Cl)cc1", "hERG current change (%, negative = inhibition) at 10uM": -15.5}, {"smiles": "O=[N+]([O-])c1cccc2ccc(/C=C/c3ccc(Cl)cc3)nc12", "hERG current change (%, negative = inhibition) at 10uM": -4.41}, {"smiles": "COc1cccc(-c2nnn(CC(=O)Nc3cc(OC)c(NC(=O)c4ccco4)cc3OC)n2)c1", "hERG current change (%, negative = inhibition) at 10uM": 3.74}, {"smiles": "O=C(CCN1CCCCC1)Nc1ccccc1", "hERG current change (%, negative = inhibition) at 10uM": 32.9}, {"smiles": "CSc1nnc(-c2ccco2)n1-c1ccccc1", "hERG current change (%, negative = inhibition) at 10uM": 2.91}, {"smiles": "Cc1ccnc2nc(C(=O)NCc3cccs3)nn12", "hERG current change (%, negative = inhibition) at 10uM": -0.776}, {"smiles": "COc1ccc(NC(=O)N2CCCC(CCC(=O)N(C)CCc3ccccn3)C2)cc1", "note": "(stereo not shown)", "hERG current change (%, negative = inhibition) at 10uM": -0.704}, {"smiles": "COc1ccc(CCNC(=S)Nc2ccccc2C)cc1", "hERG current change (%, negative = inhibition) at 10uM": 2.1}, {"smiles": "CCC(=O)Nn1c(C2CCC2)nc2ccccc2c1=O", "hERG current change (%, negative = inhibition) at 10uM": 17.6}, {"smiles": "CCCCN1C(=O)CC(Sc2ccccc2C(=O)O)C1=O", "note": "(stereo not shown)", "hERG current change (%, negative = inhibition) at 10uM": 0.971}, {"smiles": "CCOC(=O)C1=C(c2ccccc2)OC(N)=C(C#N)C1c1cccnc1", "note": "(stereo not shown)", "hERG current change (%, negative = inhibition) at 10uM": 17.3}, {"smiles": "CCOc1ccccc1OCCCC(=O)NC1=NCCS1", "hERG current change (%, negative = inhibition) at 10uM": 5.49}, {"smiles": "NC(=O)CCn1c2ccccc2c2ccccc21", "hERG current change (%, negative = inhibition) at 10uM": 22}, {"smiles": "CCc1nc(SCC(=O)NC2CCCC2)c2c(=O)n(C)c(=O)n(C)c2n1", "hERG current change (%, negative = inhibition) at 10uM": 6.92}, {"smiles": "Cc1ccc(NC(=O)C2Cc3ccccc3CN2C(=O)c2ccccc2)cc1Cl", "note": "(stereo not shown)", "hERG current change (%, negative = inhibition) at 10uM": 2.92}, {"smiles": "CN1CCN(S(=O)(=O)c2cccc(C(=O)Nc3ccccc3N3CCCCC3)c2)CC1", "hERG current change (%, negative = inhibition) at 10uM": 5.25}, {"smiles": "CC(OC(=O)Cc1ccc(Br)cc1)C(=O)NC1CCCCC1C", "note": "(stereo not shown)", "hERG current change (%, negative = inhibition) at 10uM": -4.65}, {"smiles": "O=C(CN1C(=O)/C(=C/c2ccc(F)cc2)SC1=S)NC1CCS(=O)(=O)C1", "note": "(stereo not shown)", "hERG current change (%, negative = inhibition) at 10uM": 10.3}, {"smiles": "Cc1ccc(SCCC(=O)N/N=C/c2ccncc2)cc1", "hERG current change (%, negative = inhibition) at 10uM": -9.18}, {"smiles": "CCOc1cc(CNc2ccc(CNc3ncn[nH]3)cc2)ccc1OCc1ccccc1", "hERG current change (%, negative = inhibition) at 10uM": 7.09}, {"smiles": "COc1ccc(CNS(=O)(=O)c2csc(C(N)=O)c2)cc1OC", "hERG current change (%, negative = inhibition) at 10uM": 16}, {"smiles": "COc1cccc(C(=O)CSc2nc3cccnc3n2C)c1", "hERG current change (%, negative = inhibition) at 10uM": 4.59}, {"smiles": "CCC(=O)Nc1cccc(NC(=S)NC(=O)c2ccccc2C)c1", "hERG current change (%, negative = inhibition) at 10uM": 2.68}, {"smiles": "CCOc1ccccc1NC(=O)CSc1cn[nH]n1", "hERG current change (%, negative = inhibition) at 10uM": -12.1}, {"smiles": "Cc1ccc(NC(=O)Cn2nnc(C(=O)NCc3ccc4c(c3)OCO4)c2N)cc1", "hERG current change (%, negative = inhibition) at 10uM": 28.6}]}]}
